Experimental data from PubChem BioAssay AID1347120 (National Center for Advancing Translational Sciences (NCATS), 2019).
About 930 (0.24%) of roughly 390,000 compounds were called active. The shares of active, inactive and inconclusive entries below differ from those in the screen. Calls come from the whole dose curve; as a rule, active = well fitted activation curve with a large enough effect; inconclusive = small, poorly fitted or top-dose-only effect; inactive = no such curve, though single readings can be large or run the other way. Potencies of inconclusive entries are doubtful fits and often do not repeat.

Assay: qHTS for Suppressors of FUS Proteinopathy: Primary screen using FUS-linked yeast assay; note: nearly all actives have a fitted effect of over 55% in size;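 for growth rescue (activation): plate controls were DMSO vehicle for no effect and reference control for full effect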
Conditions: S. cerevisiae FUS-expressing, OD600, 24 h; Potency: growth rescue; growth rescue (activation): at 76.6 µM (top of the series)
Method in brief: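 Quantitative HTS measuring growth restoration of FUS-toxic yeast. Galactose-induced cells (OD 0.005) were exposed 24hr at 30C to compounds at several concentrations, then absorbance at 600 nm was recorded.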
Potency is the fitted concentration of half-maximal effect; tags give direction and shape of the fitted curve.

Row | SMILES | growth rescue (activation) | Potency
1 | CCn1nc(C)c(CCN(C)C(=O)Nc2cc(Cl)ccc2C)c1C | inactive: -1.45% | 
2 | N/C(=N\OC(=O)CCC1CCCCC1)c1cccnc1 | inactive: 6.68% | 
3 | CC[C@]12c3[nH]c4cc(-c5ccco5)ccc4c3CCN1C(=O)[C@@H](CC(=O)NCc1ccco1)C[C@@H]2C(=O)N1CCN(C(=O)C2CC2)CC1 |  | inconclusive: 28.2 µM [activator, single point]
4 | COc1ccc(/C=C2\CC3(OC(=O)c4ccc(F)cc4)CCCN2C3)cc1 (stereo unspecified) | inactive: -2.54% | 
5 | Cc1cc(C)cc(C(=O)OCCCN(C)C2CN(Cc3cn(Cc4ccccc4C(F)(F)F)nn3)S(=O)(=O)C2)c1 (stereo unspecified) |  | inconclusive: 17.8 µM [activator, partial curve, poor fit]
6 | COC(=O)[C@@]12C[C@@H](CC(=O)NCCC(C)C)C(=O)N(Cc3ccc4c(c3)OCO4)C1=CCC(C)(C)C2 |  | inconclusive: 3.98 µM [activator, full curve]
7 | CCNC(=O)Cc1ccc(NC(=O)N2CCCCc3ccccc32)cc1 | inactive: 13.5% | 
8 | C=CCC[C@@H](Cc1ccc(F)cc1)C(=O)OC[C@H](Cc1c[nH]c2ccccc12)NC(=O)[C@@H](CC=C)CC(=O)N(CCO)Cc1ccccc1 |  | inconclusive: 10 µM [activator, full curve]
9 | Cc1nc(NC(=O)CN(C)S(=O)(=O)c2ccc(Br)cc2)sc1C | inconclusive: 60.3% [activator] | 
10 | COC(=O)Nc1c(C)n(C)n(-c2ccccc2)c1=O | inconclusive: 55.5% [activator] | 
11 | Cn1c(=O)c2cc(C(=O)N3CCN(c4ccc(Cl)cc4)CC3)sc2c2ccccc21 | inactive: -15.5% | 
12 | CC(=O)Nc1cc(-c2ccc(N(C)C)cc2)cn2c(-c3ccc(F)c(Cl)c3)cnc12 |  | inconclusive: 31.6 µM [activator, single point]
13 | CCC(C)[C@H](NC(=O)N1CCn2c1nc1ccccc12)C(=O)NCCc1ccccc1 (stereo partly specified) |  | inconclusive: 31.6 µM [activator, partial curve, poor fit]
14 | O=C(NCCc1ccc(Cl)cc1)c1ccc(CS(=O)Cc2cccc(Cl)c2)o1 (stereo unspecified) | inactive: 35.4% | 
15 | C=CCCC(=O)Nc1nc(C)c(-c2csc(Nc3ccc(Cl)cc3Cl)n2)s1 |  | inconclusive: 35.5 µM [activator, single point]
16 | CCC(C)NC(=O)c1cnn(-c2ccc(Cl)cc2)c1C1CCN(C(=O)OC(C)(C)C)CC1 (stereo unspecified) | inactive: 12.3% | 
17 | CCCCCCCCN1C(=O)[C@H](CC(=O)N2CCN(C(=O)OCC)CC2)C[C@@]2(C(=O)OCC)CCCC=C12 |  | inconclusive: 17.8 µM [activator, partial curve, poor fit]
18 | Cc1ccc(-c2ccc(CN3C(C)C(=O)N(Cc4cn(Cc5ccco5)nn4)CCS3(=O)=O)cc2)cc1 (stereo unspecified) |  | inconclusive: 28.2 µM [activator, single point]
19 | O=C(Nc1cccc(-c2cc3ccccc3oc2=O)c1)c1ccc(Br)o1 | inactive: 2.85% | 
20 | CN(C)c1c2ccccc2nc2c(F)c(F)c(F)c(F)c12 | inactive: -36.7% | 
21 | CCOC(=O)CSc1ncc(OC)c(Sc2ccc(Cl)cc2)n1 |  | inconclusive: 50.1 µM [activator, single point]

Row | SMILES | growth rescue (activation) | Potency
22 | O=C(NC(=S)Nc1cccc(Cl)c1N1CCCC1)c1ccc(-c2cccc([N+](=O)[O-])c2)o1 |  | inconclusive: 44.7 µM [activator, single point]
23 | CCOC(=O)N1CCC(NC(=O)c2ccc3c(c2)N=C(C)c2c(C)ccc(C)c2S3)CC1 |  | inconclusive: 31.6 µM [activator, single point]
24 | COc1ccc(N2C(=O)N3[C@H](c4ccc(Cl)cc4)[C@@H]4C(=O)N(C5CCCCC5)C(=O)[C@@H]4[C@]3(C)C2=O)cc1 |  | active: 28.2 µM
25 | N=c1c2c(ncn1CCN1CCOCC1)Oc1ccc3ccccc3c1C2c1ccccc1 (stereo unspecified) | inactive: 12.3% | 
26 | CCCc1cc(=O)[nH]c(Nc2ccc(C(=O)O)cc2)n1 | inactive: -10.3% | 
27 | CNc1nc(N)c([N+](=O)[O-])c(Nc2ccccc2OC)n1 | inactive: 1.75% | 
28 | CCc1ccccc1NC(=O)N1CCN(c2cc(-c3noc(C)n3)ccc2C)CC1 | inactive: -5.71% | 
29 | Cn1cccc1C(=O)OCc1csc(-c2ccccc2)n1 |  | inconclusive: 44.7 µM [activator, partial curve, poor fit]
30 | O=C(Nc1ccc(N2CCOCC2)cc1)c1cccc(S(=O)(=O)N2CCCCC2)c1 | inactive: -11.5% | 
31 | CCN(C(=O)CN1C(=O)COc2ccc(S(=O)(=O)N3CCOCC3)cc21)c1cccc(C)c1 | inactive: 6.54% | 
32 | O=C(c1cn(-c2ccccc2)nc1-c1cccnc1)N1CCCCC1 | inconclusive: 51.3% [activator] | 
33 | CCCCC1=CC2=CC(=O)C(C)(OC(=O)CC)C(=O)C2=CN1c1cccc(C#N)c1 (stereo unspecified) |  | inconclusive: 8.91 µM [activator, single point]
34 | CCC1(c2ccccc2)NC(=O)N(CC(=O)Nc2cc(S(=O)(=O)N3CCOCC3)ccc2OC(C)C)C1=O (stereo unspecified) |  | inconclusive: 28.2 µM [activator, partial curve, poor fit]
35 | Cc1cccc(C2CC(c3ccc(Br)cc3)Nc3nc(N)nn32)c1 (stereo unspecified) |  | inconclusive: 12.6 µM [activator, partial curve]
36 | CCN(CC)C(=O)[C@H]1CC(CC(=O)NC/C=C(\C)CCC=C(C)C)C(=O)N2CCc3c([nH]c4ccccc34)[C@]12C (stereo partly specified) |  | inconclusive: 15.8 µM [activator, single point]
37 | COC(=O)[C@@]12C[C@@H](CC(=O)NCCc3ccccc3OC)C(=O)N(Cc3ccc4c(c3)OCO4)C1=CCC(C)(C)C2 |  | inconclusive: 20 µM [activator, partial curve, poor fit]
38 | CCNC(=O)c1ccc(CSc2nc3cccnc3n2Cc2ccc(OC)cc2)cc1 | inactive: 1.44% | 
39 | Cc1ccc(S(=O)(=O)N2[C@@H](c3ccccc3F)C(C(=O)O)=CC[C@H]2c2ccc3c(c2)OCO3)cc1 | inactive: -21% | 
40 | Cc1ccc(Cn2nnc3c(=O)[nH]c(C4CCN(S(=O)(=O)c5ccc(F)cc5)CC4)nc32)cc1 |  | inconclusive: 35.5 µM [activator, partial curve, poor fit]
41 | CC(C)NC(=O)c1cnn2c1NC(c1cccs1)CC2C(F)(F)F (stereo unspecified) | inconclusive: 13.8% [activator] | 
42 | CCc1ccc(NC(=O)c2ccc3nc(C(C)C)oc3c2)cc1 |  | inconclusive: 17.8 µM [activator, partial curve, poor fit]

Row | SMILES | growth rescue (activation) | Potency
43 | COc1ccc2c(c1)c1c(c(=O)n(Cc3ccccc3)c(=O)n1CC(=O)NCc1ccc(C)cc1)n2C | inactive: -2.39% | 
44 | CCC(=O)N1CCc2cc(S(=O)(=O)CCC(=O)N3CCN(c4cccc(Cl)c4)CC3)ccc21 |  | inconclusive: 31.6 µM [activator, single point]
45 | O=C(CSc1nc(SCC(=O)NCc2ccccc2)n(-c2ccccc2)n1)NCc1ccccc1 |  | inconclusive: 31.6 µM [activator, partial curve, poor fit]
46 | CC[C@H](C)[C@@H](NC(=O)O[C@@H]1C(=O)c2cc(OC)ccc2O[C@H]1c1ccc(OC)c(Br)c1)C(=O)OC |  | inconclusive: 7.08 µM [activator, full curve]
47 | Cc1cc(C(=O)CSc2nc3ccccc3[nH]2)c(C)n1C |  | inconclusive: 22.4 µM [activator, partial curve, poor fit]
48 | N=c1n(CCN2CCCCC2)c2ccccc2n1CC(O)COc1ccccc1 (stereo unspecified) |  | inconclusive: 15.8 µM [activator, partial curve, poor fit]
49 | N#Cc1ccccc1Sc1ccccc1C(=O)OCc1nnc(-c2ccccc2)o1 |  | inconclusive: 35.5 µM [activator, partial curve, poor fit]
50 | COc1ccccc1N1CCN(C(=O)C(=O)c2cn(CC(=O)N3CCCCCC3)c3ccccc23)CC1 |  | inconclusive: 31.6 µM [activator, partial curve, poor fit]
51 | C#CCOCCOCCOCCNc1nc(N2CCN(C(=O)CCCCCCCCCCNC(=O)Cn3cc(C[C@@H](C)O)nn3)CC2)nc(N2CCN(C(=O)CCCCCCCCCCNC(=O)[C@@H]([C@H](C)O)n3cc(C)nn3)CC2)n1 |  | inconclusive: 5.01 µM [activator, full curve, poor fit]
52 | O=C(NCCCO)c1nnc(Cc2c(F)cccc2Cl)o1 | inconclusive: 59% [activator] | 
53 | Cc1cc(NC(=O)CCC(=O)N(CC(=O)NC2CCCC2)Cc2ccccc2Cl)no1 |  | inconclusive: 31.6 µM [activator, single point]
54 | Cc1ccc(C(=O)O/N=C(\N)c2cccnc2)cc1[N+](=O)[O-] | inactive: 2.76% | 
55 | CCN(Cc1ccccc1)S(=O)(=O)c1ccc2c(c1)CCCN2C(C)=O | inactive: 17.6% | 
56 | O=C(NC(=S)Nc1ccccc1N1CCN(C(=O)c2ccccc2)CC1)c1ccccc1F |  | inconclusive: 31.6 µM [activator, single point]
57 | COc1ccc(Nc2nc(-c3cccs3)nc3ccccc23)cc1S(=O)(=O)N1CCOCC1 |  | inconclusive: 39.8 µM [activator, single point]
58 | COc1cc(/C=C/C(=O)Nc2cccc(S(=O)(=O)NC3=NCCCCC3)c2)ccc1OCC#N |  | inconclusive: 20 µM [activator, partial curve, poor fit]
59 | CCOC(=O)c1ccc(NC(=O)c2nc(SC(C)C)ncc2Cl)cc1 |  | inconclusive: 50.1 µM [activator, single point]
60 | COc1ccccc1CNC(=O)c1cc2cccc3c2n1CC(C)S3 (stereo unspecified) |  | inconclusive: 28.2 µM [activator, single point]
61 | COc1cccc(CNC(=O)C2CCN(Cc3cc4ccccc4n3Cc3ccc(C)cc3)CC2)c1 |  | inconclusive: 11.2 µM [activator, partial curve]
